Reference: the RNAGym collection of RNA variant scans (doi:10.1101/gad.245936.114)
This sample is rich in variants without activity.

B1: tRNA (parent)
chain: CUCUCGGUAGCCAAGUUGGUUUAAGGCGCAAGACUUUAAUUUAUCACUACGAAAUCUUGAGAUCGGGCGUUCGACUCGCCCCCGGGAGAUUUUUUCCUCGAGCAA

Variants of: B1
Test: nonsense suppression (GFP-seq) (ratio to wild type); higher = more function; SUP4oc tRNA, yeast GFP reporter sort-seq
How it was run: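 Nonsense suppression (GFPSEQ) is the median GFP/RFP ratio of each sorting bin, weighted by the variant's estimated share of cells in that bin and expressed relative to the unmutated parent tRNA. Yeast strains carried genome-integrated variants of an ochre-suppressor tRNA from a library with ~3% random mutations, plus a galactose-driven GFP ochre reporter and RFP, and were grown in raffinose/galactose medium containing 80 mg/L adenine. Cells were sorted into GFP/RFP bins, each bin was Illumina-sequenced (phred ≥30), and variants were kept only with ≥100 reads and ≥30 cells.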

Variant | nonsense suppression
G15A U21G A23C C29U A30G C75G U76C | ≤ 0.026
G15U A30G | ≤ 0.026
A14G G18A A24G | ≤ 0.026
G15C A23G G73A C77U | ≤ 0.026
G15C A60C | ≤ 0.026
A14G U57A U70C G73A | ≤ 0.026
G15C G25U A54U | ≤ 0.026
G15A G18C U21G U58C | ≤ 0.026
G15U A24G U76A C81G | ≤ 0.026
A14G G15A C68G | ≤ 0.026
A14G C27A | ≤ 0.026
A14G C27G | ≤ 0.026
A14U U22G A60U C72A A87C | ≤ 0.026
G15C U21C C64G G78A | ≤ 0.026
A14U C80G | ≤ 0.026
A14G U20C C77G | ≤ 0.026
A14U G25C A33U U76C | ≤ 0.026
A14G G88A | ≤ 0.026
A14G G88U | ≤ 0.026
A14U G19U G61C | ≤ 0.026
G15U A23G G73C C80A | ≤ 0.026
G15U A24C A60C | ≤ 0.026
A14G U35G A87U | ≤ 0.026
G15A U57G C79G | ≤ 0.026

Variant | nonsense suppression
A14U A23G A62U G65A U70C A89G | ≤ 0.026
G15A A24G C29G A54G | ≤ 0.026
A14G U17A A62G G88U | ≤ 0.026
A14U U21A A23G U55G | ≤ 0.026
G15A C75U A89C | ≤ 0.026
G15A A60C U63A C68U | ≤ 0.026
A14U A33C U71A | ≤ 0.026
A14U A33C U58A | ≤ 0.026
G15C U16A U21A | ≤ 0.026
G15C C27A U58G G69A U71G | ≤ 0.026
A14G C34U C64G C77U | ≤ 0.026
G15C G66C A87G G88A | ≤ 0.026
G15C G32U G86A G88A | ≤ 0.026
A14G G19U | ≤ 0.026
G15A G67U C72G | ≤ 0.026
G15A A62U C80A | ≤ 0.026
G15A U17C G84A G85U | ≤ 0.026
A14U C29A U55A G69C | ≤ 0.026
A14U G67A | ≤ 0.026
G15A A33G C34U A62C | ≤ 0.026
A14G A62G C75G | ≤ 0.026
A14C U58G G73C C82A | ≤ 0.026
G15A U57G | ≤ 0.026
G15A U57C | ≤ 0.026

Variant | nonsense suppression
A14U C56U C80G G88C | ≤ 0.026
A14U U35G C83U | ≤ 0.026
A14U G18U A60G G85U | ≤ 0.026
G15A G28A C56A U57G A62C G86A A87C | ≤ 0.026
G15A A33C C80A G88C A89C | ≤ 0.026
G15A A31G C34A G66U U71A | ≤ 0.026
G15C A33U | ≤ 0.026
A14U C27G G32U U55A G67C C81G | ≤ 0.026
G15U C27G A87U | ≤ 0.026
G15A C79A | ≤ 0.026
G15A C79U | ≤ 0.026
A14U C56G G86C | ≤ 0.026
G15C C56A | ≤ 0.026
G15C U35C | ≤ 0.026
A14G U17G A54G C68U A89U | ≤ 0.026
G15A G19A A30U U63G U76C | ≤ 0.026
A14U U22C G67C | ≤ 0.026
G15C U22A G25A A33U U55C C56A | ≤ 0.026
A14G C81G | ≤ 0.026
A14G C81U | ≤ 0.026
A14U A31U C79U A89G | ≤ 0.026
A14G U21G A54G U70C | ≤ 0.026
A14G A30U | 0.0337
A14U U63G G86U | ≤ 0.026

Variant | nonsense suppression
A14U G73U G84C | ≤ 0.026
G15A C77G G85A G88U | ≤ 0.026
A14G U71G G78U | ≤ 0.026
A14U C29U | ≤ 0.026
A14U C29A | ≤ 0.026
A14U G25A A30U G86U | ≤ 0.026
G15A A74G | ≤ 0.026
A14U U70A | ≤ 0.026
G15A U16G G32U G67C | ≤ 0.026
A14G G19U C29G U76C G84A | ≤ 0.026
A14G U16G A24G C27G U58C A60G G69C | ≤ 0.026
A14G C72A | ≤ 0.026
G15C G25U G61U | ≤ 0.026
A14U G26U A30U C56G U57A | ≤ 0.026
A14U A31U G67C | ≤ 0.026
A14G G61C A62U | ≤ 0.026
A14U C29G A87U | ≤ 0.026
A14U G25U G86C | ≤ 0.026
G15A C27U U63G | ≤ 0.026
A14U C75G U76C G84C | ≤ 0.026
G15C U57A G73A | ≤ 0.026
A14U G15A G65U | ≤ 0.026
G15C G69C | ≤ 0.026
A14G A24U G66A G69C G84A | ≤ 0.026

Variant | nonsense suppression
G15C C27G A31C | ≤ 0.026
A14U G19U G32C U35A | ≤ 0.026
G15C G85U | ≤ 0.026
G15C G85A | ≤ 0.026
G15U A23U G26U G86A A87G | ≤ 0.026
A14U G59A G69A A74G | ≤ 0.026
A14G C68A C75G | ≤ 0.026
G15C U70A | ≤ 0.026
G15C G32A A33U U70A | ≤ 0.026
A14G G18C G28U C80G | ≤ 0.026
G15A G28C U71G C79A | ≤ 0.026
A14G U58G | ≤ 0.026
A14G G25A A30C G86C | ≤ 0.026
A14U C27U A33C G66C C68A U76C | ≤ 0.026
G15U A23U C83G | ≤ 0.026
A14U C75U | ≤ 0.026
G15A G26U U55A | ≤ 0.026
G15A C29A | ≤ 0.026
A14U G25U A30C G65C | ≤ 0.026
A14U G69C C75G C81A | ≤ 0.026
A14U C68A G86C | ≤ 0.026
A14U A62U | ≤ 0.026
G15C A24C A30G A87U | ≤ 0.026
A14G A24C A62U | ≤ 0.026

Variant | nonsense suppression
A14G A74C C77A A87C | ≤ 0.026
A14G G61A U70A A89U | ≤ 0.026
G15U A23G C29A C56A | ≤ 0.026
A14G U17G C82G | ≤ 0.026
A14U A62U G69A | ≤ 0.026
G15A A54U U55G U57G U58G | ≤ 0.026
A14G A30G C79A | ≤ 0.026
G15U A23G G65C | ≤ 0.026
A14U U55G G73A C77G | ≤ 0.026
A14U G32C G61C C75U G88C | ≤ 0.026
G15A U20C G84C | ≤ 0.026
G15A G73C | ≤ 0.026
A14U U21A U55G C81G C82U | ≤ 0.026
A14U G15C A60C C79U | ≤ 0.026
G15U A24C G69A G88U A89C | ≤ 0.026
G15A U16A | 0.0275
A14U A24U A60C G67A U70C | ≤ 0.026
A14U G65U G84U | ≤ 0.026
G15C C27U A33C | ≤ 0.026
A14G C56U G73U C75A | ≤ 0.026
A14G C34A | ≤ 0.026
G15C A62C | ≤ 0.026
G15A C27U | ≤ 0.026
A14U U20G A23G U58G G65C U70C G73A C82G | ≤ 0.026

Variant | nonsense suppression
G15C C27U U63G | ≤ 0.026
A14U A31U G65C A74C U76G | ≤ 0.026
G15A A87G | ≤ 0.026
A14U G84A | ≤ 0.026
G15C U17C | ≤ 0.026
A14G U20G G61C C82G | ≤ 0.026
G15A A33C U71C | ≤ 0.026
A14G C75G G85A | ≤ 0.026
A14U U16C U70A C80G | ≤ 0.026
A14G G25C C64U | ≤ 0.026
A14G A23G A33G A54U U76C C82U | ≤ 0.026
G15A A31C U71G | ≤ 0.026
G15A C82G | ≤ 0.026
A14U G65C C68A G69U | ≤ 0.026
G15C G19U | ≤ 0.026
G15C G19C | ≤ 0.026
A14C U22A A30G | ≤ 0.026
G15C U22C U58G U70A | ≤ 0.026
G15C C29U U63C | ≤ 0.026
A14U U76G G78U | ≤ 0.026
A14U U22G C29A C56A C77G | ≤ 0.026
G15A A23G C82U | ≤ 0.026
A14U G19U A24G G61C | ≤ 0.026
